B1: TEV protease; numbered along this chain (parent)
chain: MGESLFKGPRDYNPISSSICHLTNESDGHTTSLYGIGFGPFIITNKHLFRRNNGTLVVQSLHGVFKVKDTTTLQQHLVDGRDMIIIRMPKDFPPFPQKLKFREPQREERICLVTTNFQTKSMSSMVSDTSCTFPSGDGIFWKHWIQTKDGQCGSPLVSTRDGFIVGIHSASNFTNTNNYFTSVPKNFMELLTNQEAQQWVSGWRLNADSVLWGGHKVFMVKPEEPFQPVKEATQL

In the experiment the parent is B1. Put plainly: raw area under fraction-flipped curve 0-4 h after induction (AUC4h, not background-subtracted), DNA-recorder readout of cleavage of the substrate (dimensionless); higher = more cleavage of the substrate by the protease variant. The settings on record: temperature: 34 °C; time window: 0-4 h after rhamnose induction. How it is done: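 In vivo DNA recorder in E. coli TOP10(DE3) ΔrhaA at 34 °C. Each TEVp single-site mutant (parent TEVp 0) is paired with a single-site variant of the 7-mer TEVs (canonical ENLYFQ|S). The substrate sits between flexible linkers in a Bxb1-sfGFP-TEVs-SsrA fusion, so cleavage stabilises Bxb1 and speeds flipping of a recombination array, read by NGS. The value is the raw area under the fraction-flipped curve over 0-4 h after rhamnose induction (AUC4h), with ≥20 reads per time point. It is not background-subtracted; inactive controls average about 0.047.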

This is one part of the list. Sequences were assembled here from the parent chain. Inactive controls read about 0.05.

The source of these data is the supplement of paper PMC12217912.
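Further: Bxb1 expression induced with 0.2% (w/v) L-rhamnose at OD600 near 0.5, cultures sampled hourly, flipped fraction per protease–substrate barcode pair counted by paired-end Illumina sequencing.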

On to MGESLFKGPRDYNPISSSICHETNESDGHTTSLYGIGFGPFIITNKHLFRRNNGTLVVQSLHGVFKVKDTTTLQQHLVDGRDMIIIRMPKDFPPFPQKLKFREPQREERICLVTTNFQTKSMSSMVSDTSCTFPSGDGIFWKHWIQTKDGQCGSPLVSTRDGFIVGIHSASNFTNTNNYFTSVPKNFMELLTNQEAQQWVSGWRLNADSVLWGGHKVFMVKPEEPFQPVKEATQL [L22E], for which the “area with substrate ENLYFQA” value stood at 0.0499, the “area with substrate ENLYFQC” value is 0.0531, the “area with substrate ENLYFQE” value was 0.0489 and the “area with substrate ENLYFQH” value turned out to be 0.0565. Further, the “area with substrate ENLYFQI” value turned out to be 0.0379, the “area with substrate ENLYFQK” value stood at 0.0343, the “area with substrate ENLYFQL” value came to 0.0345 and the “area with substrate ENLYFQM” value stood at 0.0205. In addition, the “area with substrate ENLYFQN” value is 0.0308, the “area with substrate ENLYFQP” value is 0.0462, the “area with substrate ENLYFQR” value was 0.0489 and the “area with substrate ENLYFQS” value came to 0.0442. In addition, the “area with substrate ENLYFQT” value worked out at 0.0485, the “area with substrate ENLYFQV” value was 0.0415, the “area with substrate ENLYFQW” value was found to be 0.0461 and the “area with substrate ENLYFQY” value is 0.0333.
MGESLFKGPRDYPPISSSICHLTNESDGHTTSLYGIGFGPFIITNKHLFRRNNGTLVVQSLHGVFKVKDTTTLQQHLVDGRDMIIIRMPKDFPPFPQKLKFREPQREERICLVTTNFQTKSMSSMVSDTSCTFPSGDGIFWKHWIQTKDGQCGSPLVSTRDGFIVGIHSASNFTNTNNYFTSVPKNFMELLTNQEAQQWVSGWRLNADSVLWGGHKVFMVKPEEPFQPVKEATQL [N13P]: the “area with substrate ENLYFQA” value was 0.0885, the “area with substrate ENLYFQE” value amounted to 0.0656, the “area with substrate ENLYFQF” value is 0.0794 and the “area with substrate ENLYFQG” value came to 0.113. Moreover, the “area with substrate ENLYFQH” value was found to be 0.0785, the “area with substrate ENLYFQI” value is 0.0673, the “area with substrate ENLYFQK” value worked out at 0.0585 and the “area with substrate ENLYFQL” value came to 0.0622. Besides, the “area with substrate ENLYFQM” value worked out at 0.0916, the “area with substrate ENLYFQN” value came to 0.0737, the “area with substrate ENLYFQR” value was 0.0587 and the “area with substrate ENLYFQS” value stood at 0.0971. The “area with substrate ENLYFQT” value turned out to be 0.0501, the “area with substrate ENLYFQV” value stood at 0.0656, the “area with substrate ENLYFQW” value is 0.0699 and the “area with substrate ENLYFQY” value was 0.0712.
As to MGESLFKGPRDYLPISSSICHLTNESDGHTTSLYGIGFGPFIITNKHLFRRNNGTLVVQSLHGVFKVKDTTTLQQHLVDGRDMIIIRMPKDFPPFPQKLKFREPQREERICLVTTNFQTKSMSSMVSDTSCTFPSGDGIFWKHWIQTKDGQCGSPLVSTRDGFIVGIHSASNFTNTNNYFTSVPKNFMELLTNQEAQQWVSGWRLNADSVLWGGHKVFMVKPEEPFQPVKEATQL [N13L], the “area with substrate ENLYFQA” value was found to be 0.113, the “area with substrate ENLYFQC” value was found to be 0.13, the “area with substrate ENLYFQF” value was 0.0925 and the “area with substrate ENLYFQG” value came out at 0.109. Also, the “area with substrate ENLYFQH” value is 0.0892, the “area with substrate ENLYFQI” value was 0.0461, the “area with substrate ENLYFQK” value worked out at 0.0697 and the “area with substrate ENLYFQL” value is 0.0576. For the same variant, the “area with substrate ENLYFQM” value is 0.106, the “area with substrate ENLYFQN” value was found to be 0.0807, the “area with substrate ENLYFQP” value turned out to be 0.0703 and the “area with substrate ENLYFQR” value came to 0.0588. Also, the “area with substrate ENLYFQS” value came to 0.115, the “area with substrate ENLYFQT” value came to 0.0704, the “area with substrate ENLYFQV” value was determined as 0.0584 and the “area with substrate ENLYFQW” value was determined as 0.0611. Further, the “area with substrate ENLYFQY” value was 0.09.
Take MGESLFKGPRDYNMISSSICHLTNESDGHTTSLYGIGFGPFIITNKHLFRRNNGTLVVQSLHGVFKVKDTTTLQQHLVDGRDMIIIRMPKDFPPFPQKLKFREPQREERICLVTTNFQTKSMSSMVSDTSCTFPSGDGIFWKHWIQTKDGQCGSPLVSTRDGFIVGIHSASNFTNTNNYFTSVPKNFMELLTNQEAQQWVSGWRLNADSVLWGGHKVFMVKPEEPFQPVKEATQL [P14M]: the “area with substrate ENLYFQA” value came out at 0.0978, the “area with substrate ENLYFQC” value was 0.112, the “area with substrate ENLYFQD” value worked out at 0.0997 and the “area with substrate ENLYFQF” value came to 0.0718. In addition, the “area with substrate ENLYFQG” value amounted to 0.11, the “area with substrate ENLYFQH” value came out at 0.0805, the “area with substrate ENLYFQI” value was 0.0528 and the “area with substrate ENLYFQK” value was 0.0583. Moreover, the “area with substrate ENLYFQL” value amounted to 0.0612, the “area with substrate ENLYFQM” value was found to be 0.0821, the “area with substrate ENLYFQN” value was determined as 0.0349 and the “area with substrate ENLYFQP” value came out at 0.0549. The “area with substrate ENLYFQR” value worked out at 0.0548, the “area with substrate ENLYFQS” value is 0.0966, the “area with substrate ENLYFQT” value was determined as 0.0702 and the “area with substrate ENLYFQY” value was found to be 0.0844.
With MGESLFKGPRDYNAISSSICHLTNESDGHTTSLYGIGFGPFIITNKHLFRRNNGTLVVQSLHGVFKVKDTTTLQQHLVDGRDMIIIRMPKDFPPFPQKLKFREPQREERICLVTTNFQTKSMSSMVSDTSCTFPSGDGIFWKHWIQTKDGQCGSPLVSTRDGFIVGIHSASNFTNTNNYFTSVPKNFMELLTNQEAQQWVSGWRLNADSVLWGGHKVFMVKPEEPFQPVKEATQL [P14A], the “area with substrate ENLYFQA” value came to 0.0973, the “area with substrate ENLYFQC” value was 0.129, the “area with substrate ENLYFQD” value is 0.0836 and the “area with substrate ENLYFQI” value came to 0.0601. For the same variant, the “area with substrate ENLYFQK” value stood at 0.06, the “area with substrate ENLYFQL” value was found to be 0.0913, the “area with substrate ENLYFQM” value is 0.0861 and the “area with substrate ENLYFQN” value stood at 0.0784. Also, the “area with substrate ENLYFQP” value stood at 0.0553, the “area with substrate ENLYFQQ” value came to 0.0797, the “area with substrate ENLYFQR” value amounted to 0.0685 and the “area with substrate ENLYFQS” value stood at 0.114. Also, the “area with substrate ENLYFQT” value is 0.0597, the “area with substrate ENLYFQV” value is 0.0511 and the “area with substrate ENLYFQY” value worked out at 0.0905.
Consider MGESLFKGPRDYNPISSSKCHLTNESDGHTTSLYGIGFGPFIITNKHLFRRNNGTLVVQSLHGVFKVKDTTTLQQHLVDGRDMIIIRMPKDFPPFPQKLKFREPQREERICLVTTNFQTKSMSSMVSDTSCTFPSGDGIFWKHWIQTKDGQCGSPLVSTRDGFIVGIHSASNFTNTNNYFTSVPKNFMELLTNQEAQQWVSGWRLNADSVLWGGHKVFMVKPEEPFQPVKEATQL [I19K], for which the “area with substrate ENLYFQA” value came out at 0.0824, the “area with substrate ENLYFQC” value is 0.0796, the “area with substrate ENLYFQI” value was 0.0608 and the “area with substrate ENLYFQL” value is 0.0434. Also, the “area with substrate ENLYFQM” value was 0.0587, the “area with substrate ENLYFQN” value amounted to 0.0439, the “area with substrate ENLYFQP” value came to 0.0349 and the “area with substrate ENLYFQQ” value turned out to be 0.0491. For the same variant, the “area with substrate ENLYFQR” value amounted to 0.0681, the “area with substrate ENLYFQS” value was found to be 0.0707, the “area with substrate ENLYFQT” value came to 0.0364 and the “area with substrate ENLYFQV” value stood at 0.0572. The “area with substrate ENLYFQW” value was determined as 0.0479.
As to MGESLFKGPRDYNPISSSPCHLTNESDGHTTSLYGIGFGPFIITNKHLFRRNNGTLVVQSLHGVFKVKDTTTLQQHLVDGRDMIIIRMPKDFPPFPQKLKFREPQREERICLVTTNFQTKSMSSMVSDTSCTFPSGDGIFWKHWIQTKDGQCGSPLVSTRDGFIVGIHSASNFTNTNNYFTSVPKNFMELLTNQEAQQWVSGWRLNADSVLWGGHKVFMVKPEEPFQPVKEATQL [I19P], the “area with substrate ENLYFQA” value was determined as 0.049, the “area with substrate ENLYFQD” value worked out at 0.0459, the “area with substrate ENLYFQF” value is 0.0487 and the “area with substrate ENLYFQG” value was found to be 0.0532. Moreover, the “area with substrate ENLYFQH” value stood at 0.039, the “area with substrate ENLYFQI” value is 0.0311, the “area with substrate ENLYFQK” value came to 0.0432 and the “area with substrate ENLYFQL” value was found to be 0.0439. Further, the “area with substrate ENLYFQM” value was 0.0514, the “area with substrate ENLYFQP” value is 0.0421, the “area with substrate ENLYFQQ” value came out at 0.0438 and the “area with substrate ENLYFQR” value came out at 0.045. The “area with substrate ENLYFQS” value is 0.0485, the “area with substrate ENLYFQT” value stood at 0.0464, the “area with substrate ENLYFQV” value is 0.0434 and the “area with substrate ENLYFQW” value worked out at 0.0436. Also, the “area with substrate ENLYFQY” value is 0.0401.
Regarding MGESLFKGPRDYNPISSSYCHLTNESDGHTTSLYGIGFGPFIITNKHLFRRNNGTLVVQSLHGVFKVKDTTTLQQHLVDGRDMIIIRMPKDFPPFPQKLKFREPQREERICLVTTNFQTKSMSSMVSDTSCTFPSGDGIFWKHWIQTKDGQCGSPLVSTRDGFIVGIHSASNFTNTNNYFTSVPKNFMELLTNQEAQQWVSGWRLNADSVLWGGHKVFMVKPEEPFQPVKEATQL [I19Y], the “area with substrate ENLYFQA” value amounted to 0.0775, the “area with substrate ENLYFQC” value is 0.099, the “area with substrate ENLYFQE” value was 0.0468 and the “area with substrate ENLYFQG” value was 0.0515. The “area with substrate ENLYFQH” value worked out at 0.0575, the “area with substrate ENLYFQI” value was determined as 0.0384, the “area with substrate ENLYFQK” value worked out at 0.0518 and the “area with substrate ENLYFQL” value turned out to be 0.05. In addition, the “area with substrate ENLYFQM” value worked out at 0.047, the “area with substrate ENLYFQN” value came out at 0.0674, the “area with substrate ENLYFQQ” value amounted to 0.0612 and the “area with substrate ENLYFQR” value came out at 0.0525. Also, the “area with substrate ENLYFQS” value turned out to be 0.0714, the “area with substrate ENLYFQT” value stood at 0.0641, the “area with substrate ENLYFQV” value stood at 0.0518 and the “area with substrate ENLYFQY” value worked out at 0.0606.
Turning to MGESLFKGPRDYNPISSSVCHLTNESDGHTTSLYGIGFGPFIITNKHLFRRNNGTLVVQSLHGVFKVKDTTTLQQHLVDGRDMIIIRMPKDFPPFPQKLKFREPQREERICLVTTNFQTKSMSSMVSDTSCTFPSGDGIFWKHWIQTKDGQCGSPLVSTRDGFIVGIHSASNFTNTNNYFTSVPKNFMELLTNQEAQQWVSGWRLNADSVLWGGHKVFMVKPEEPFQPVKEATQL [I19V], the “area with substrate ENLYFQA” value amounted to 0.106, the “area with substrate ENLYFQC” value came out at 0.0956, the “area with substrate ENLYFQD” value came to 0.0727 and the “area with substrate ENLYFQF” value was 0.0767. In addition, the “area with substrate ENLYFQG” value came to 0.0966, the “area with substrate ENLYFQI” value is 0.0539, the “area with substrate ENLYFQK” value was 0.0622 and the “area with substrate ENLYFQL” value is 0.0671. Further, the “area with substrate ENLYFQM” value came out at 0.0958, the “area with substrate ENLYFQN” value stood at 0.0833, the “area with substrate ENLYFQP” value turned out to be 0.0557 and the “area with substrate ENLYFQQ” value worked out at 0.0706. Moreover, the “area with substrate ENLYFQR” value was determined as 0.0599, the “area with substrate ENLYFQS” value turned out to be 0.104 and the “area with substrate ENLYFQT” value was found to be 0.0622.
